According to article PMC4336329 (PLoS ONE, 2015):
In all, about 310,000 compounds went through this assay and about 2,200 (0.71%) showed an effect of 50% or more. Effects have a minus sign here. The list shows a part of the results. Where a SMILES comes first, the peptide text is derived from it. The star is where a group is joined. Piperidide = C1CCN(*)CC1; PhAc = O=C(Cc1ccccc1)*

biological target: human ether-à-go-go-related gene (hERG) potassium channel (human, UniProt Q12809); experiment: primary screen, population patch clamp on CHO cells stably expressing hERG
Sequence (Q12809 whole entry, looked up): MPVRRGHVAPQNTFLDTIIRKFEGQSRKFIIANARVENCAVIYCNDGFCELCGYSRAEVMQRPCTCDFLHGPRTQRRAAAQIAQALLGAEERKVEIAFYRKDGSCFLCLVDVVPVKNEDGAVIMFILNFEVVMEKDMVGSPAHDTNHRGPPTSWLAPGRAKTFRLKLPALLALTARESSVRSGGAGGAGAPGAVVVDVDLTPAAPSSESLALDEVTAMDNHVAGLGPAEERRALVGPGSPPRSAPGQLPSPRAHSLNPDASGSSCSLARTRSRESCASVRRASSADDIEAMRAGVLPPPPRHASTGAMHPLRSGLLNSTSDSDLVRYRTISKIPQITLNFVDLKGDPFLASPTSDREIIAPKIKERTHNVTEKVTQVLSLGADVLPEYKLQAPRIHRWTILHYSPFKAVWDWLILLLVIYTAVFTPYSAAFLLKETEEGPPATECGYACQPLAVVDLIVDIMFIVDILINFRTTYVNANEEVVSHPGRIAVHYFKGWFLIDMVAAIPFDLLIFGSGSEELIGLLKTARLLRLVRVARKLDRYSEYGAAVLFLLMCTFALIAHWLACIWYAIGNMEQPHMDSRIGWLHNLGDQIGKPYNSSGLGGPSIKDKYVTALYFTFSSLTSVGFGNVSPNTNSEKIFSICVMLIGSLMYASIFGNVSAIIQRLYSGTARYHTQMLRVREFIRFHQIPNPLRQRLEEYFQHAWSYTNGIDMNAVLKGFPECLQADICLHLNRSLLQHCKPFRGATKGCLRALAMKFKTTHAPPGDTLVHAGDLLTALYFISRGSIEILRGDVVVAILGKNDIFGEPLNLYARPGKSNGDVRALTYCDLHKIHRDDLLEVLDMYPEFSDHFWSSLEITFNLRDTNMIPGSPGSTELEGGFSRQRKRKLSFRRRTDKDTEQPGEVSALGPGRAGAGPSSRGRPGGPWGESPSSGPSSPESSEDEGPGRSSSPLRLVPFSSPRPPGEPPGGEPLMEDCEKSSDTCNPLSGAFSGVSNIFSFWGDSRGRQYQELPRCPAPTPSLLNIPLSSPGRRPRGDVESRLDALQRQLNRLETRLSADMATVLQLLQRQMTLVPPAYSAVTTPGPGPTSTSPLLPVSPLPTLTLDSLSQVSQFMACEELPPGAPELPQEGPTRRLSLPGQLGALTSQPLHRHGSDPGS

SMILES	hERG current change (%, negative = inhibition) at 1uM [%]
CC(=O)N1c2ccccc2C(C)=CC1(C)C	12.5
CN(C)S(=O)(=O)c1ccc(NC(=O)CSc2ncnc3ccccc23)cc1	10.3
CCCCn1nnnc1SCC(=O)N1CCCC1	13.1
O=S(=O)(c1cccc2cccnc12)N(CCO)CCO	18.1
COC(=O)c1scc(C#N)c1N/N=C(\C#N)S(=O)(=O)c1ccc(Cl)cc1	8.9
CN(CC(=O)Nc1ccccc1Oc1ccccc1)Cc1ccccc1F.O=C(O)C(=O)O	11.4
COc1cc(SC)ccc1C(=O)NCC1CCCCC1	4.23
O=C1Nc2ncccc2OC1CCCl (stereo not drawn)	11.4
CC(Cc1cccnc1)NC(=O)c1ccccc1OC1CCN(S(C)(=O)=O)CC1 (stereo not drawn)	9.74
CCOC(=O)C1(Cc2cccc(Cl)c2)CCCN(C(=O)c2ccco2)C1 (stereo not drawn)	16.6
CCOC(=O)C(=O)N/N=C(/c1ccccc1)c1ccc(OC)cc1	11.1
CC(C)CSc1nc2ccccc2[nH]1	13
Cc1ccc(C(=O)Nc2ncc(Cc3ccccc3)s2)o1	-2.28
Cc1cccc(CNC(=O)CCc2nnc(C3CCCCC3)o2)c1	9.53
Cc1ccccc1N=Nc1c(N)n[nH]c1N	3.57
COc1ccc(OC)c(NC(=O)COC(=O)c2ccc(OC)c(S(=O)(=O)N3CCOCC3)c2)c1	8.3
O=C(CSc1ccc2ccccc2n1)N/N=C/c1ccc(O)cc1	2.89
COCc1cc(C)nc(SCC(=O)Nc2ccc(C)c(C)c2)c1C#N	1.69
COc1ccc(OC)c(C(=O)Cn2cnc3ccccc3c2=O)c1	1.84
CCCN1CCc2c(sc3nc(SC)n(-c4ccccc4)c(=O)c23)C1	5.03
COc1ccc2nc(NC(=O)CSc3nnc(N)s3)sc2c1	10.3
CCOC(=O)C1CCN(C(=O)C2CCCN(S(=O)(=O)c3ccc(OCC)c(Cl)c3)C2)CC1 (stereo not drawn)	-13.9
COc1ccc2[nH]c(=O)c(CN(CC3CCCO3)C(=S)Nc3cccc(C)c3)cc2c1 (stereo not drawn)	25.9

SMILES	hERG current change (%, negative = inhibition) at 1uM [%]
COc1ccc(CCNC(=O)/C=C\c2ccccc2)cc1OC	4.35
CC[N+](CC)(CC)CCOc1ccc(/C=C/c2ccccc2)cc1.[I-]	1.94
COc1cccc(-c2csc(N3CCN(C(=O)Nc4ccccc4OC)CC3)n2)c1	0.646
Cc1cccc[n+]1CC(=O)c1ccc2c(c1)OCCO2.[Br-]	1.08
CC/C(=N/O)c1cnnc(SC)n1	8.46
Cl.Clc1ccccc1CN1CCN(/N=C/c2ccncc2)CC1	9.95
CC(=O)NCCC(Cc1ccccc1)c1ccco1 (stereo not drawn)	10.8
COc1cccc(CNC(=O)c2ccc(C)c(NC3=NC4CS(=O)(=O)CC4S3)c2)c1 (stereo not drawn)	6.73
N#CCSc1nc2c(c(C3CC=CCC3)c1C#N)CCC2 (stereo not drawn)	18.3
NNc1nc(C(F)(F)F)nc2ccccc12	30.1
CC(NC(=O)CNC(=S)N(Cc1cccs1)C1CCCC1)c1ccccc1 (stereo not drawn)	-5.94
Oc1c(C(c2ccco2)N2CCC3(CC2)OCCO3)sc2ncnn12 (stereo not drawn)	0.42
COc1ccc(OC(C)C(=O)N2CCC(C)CC2)cc1 (stereo not drawn)	8.02
COc1cccc(-c2ccc(NC(=O)C3CCCN(CCCn4nc(C)cc4C)C3)cc2)c1 (stereo not drawn)	-15.9
CN(C)C(CNC(=O)c1ccc(OCc2cn3ccccc3n2)cc1)c1ccco1 (stereo not drawn)	3.22
COc1ccc(Cl)cc1NC(=O)c1cccc(NC(=O)CCC(=O)O)c1	6.71
O=C(Cc1c[nH]c2ccccc12)N/N=C/c1ccc(F)cc1	13.1
Cc1ccc(C)c(NC(=O)CCC(=O)OC(C(=O)c2ccccc2)c2ccccc2)c1 (stereo not drawn)	-6.38
CC1CC(NC(=O)c2cnc3n(c2=O)CCS3)CC(C)(C)C1 (stereo not drawn)	10.7
Cc1c(Cc2ccc3c(c2)OCO3)sc(NC(=O)C2CC2)c1C(N)=O	1.07
Cc1ccc(C)c(NC(=S)N2CCN(CCO)CC2)c1	5.15
CCOC(=O)c1cnc2ccc(C)cc2c1NCCO	-26.3
CCc1nnc(NC(=O)c2cccc(C(=O)Nc3nnc(CC)s3)n2)s1	4.29

SMILES	hERG current change (%, negative = inhibition) at 1uM [%]
COc1ccc(C(=O)OCC(=O)NCC2CCCCC2)cc1S(=O)(=O)N1CCCc2ccccc21	13.6
CCOc1cc(S(=O)(=O)NCCCN2CCOCC2)c(C)cc1C	1.48
Cc1ccc(C(=O)Nc2cc(C)c(OCC(=O)N3CCOCC3)c(C)c2)cc1	-5.89
COc1ccc(-n2nc(C(=O)NCC(=O)NCCCN3CCN(C)CC3)c3ccccc3c2=O)cc1OC	12.3
O=C(C1CCCO1)N1CCN(C(=S)Nc2ccccc2F)CC1 (stereo not drawn)	4.51
COc1ccc(C(=O)N(Cc2nc(-c3ccc(C)cc3)no2)C2CCCCC2)cc1OC	4.53
CC(=O)c1cccc(NC(=O)CSc2nc(N3CCOCC3)nc(N3CCOCC3)n2)c1	9.89
COc1ccc(S(=O)(=O)N2CCCCCC2)cc1NS(=O)(=O)c1cc(C(=O)O)cc(C)c1C	1.73
CSc1nc2c(c(=O)[nH]1)C(c1ccncc1)C(C(=O)OC(C)C)=C(C)N2 (stereo not drawn)	6.55
Cc1ccccc1C(=O)OCc1cnc(Cl)s1	15.9
Cn1c(=O)n(C)c2cc([N+](=O)[O-])c(N3CCNCC3)cc21	4.9
COC(=O)[C@H]1C2CCC(C(=O)OC)(CC2)[C@H]1C(=O)OC	17.8
C[N+]1(C)CCc2cc3c(cc2[C@H]1[C@@H]1OC(=O)c2c1ccc1c2OCO1)OCO3.[Br-]	13.1
O=C(c1ccc2c(=O)n3c(nc2c1)CCCCC3)N1CCN(c2ccccc2F)CC1	5.62
CCCc1ccc(C2C3=C(CC(C)(C)CC3=O)NC3=C2C(=O)c2ccccc23)cc1 (stereo not drawn)	2.48
O=C(Nc1cccc(S(=O)(=O)N2CCCCCC2)c1)C1CCC1	3.98
COc1cccc(CC(=O)NC2CCCN(Cc3ccccc3F)C2)c1 (stereo not drawn)	-2.78
COc1ccc(OC)c(N(CC(=O)Nc2ccccc2)S(C)(=O)=O)c1	18.4
CCc1ccc(C(C(=O)NCc2ccc(OC)cc2)N(CCOC)C(=O)Cc2cccs2)cc1 (stereo not drawn)	1.36
Cc1ccc(C(=O)Sc2cccccc2=O)cc1	15.1
Cc1ccc(Cl)cc1N(CC(=O)NCc1ccc2c(c1)OCO2)S(C)(=O)=O	-14.3
Cc1ccc(S(=O)(=O)NCC(c2ccco2)N2CCc3ccccc32)cc1 (stereo not drawn)	-5.38
O=C(COC(=O)c1sc2cc(F)ccc2c1Cl)Nc1ncc(Cl)cc1Cl	14.5

SMILES	hERG current change (%, negative = inhibition) at 1uM [%]
COC(=O)CCC(=O)OC1(C)C(=O)C=C2C=C(C3CC3)N(Cc3ccccc3)C=C2C1=O (stereo not drawn)	15.8
COC(=O)c1cccc(S(=O)(=O)N2CCC(n3nnc4cc(F)ccc43)CC2)c1	-0.319
COc1cccc2cc(C(N)=O)oc12	10.9
COc1cc(N=Cc2c(CO)cnc(C)c2O)cc(OC)c1OC	12.8
COc1ccc(-c2cn[nH]c2-c2ccc(O)cc2O)cc1	9.74
O=C(CC1OC(=O)c2ccccc21)Nc1cc(Cl)ccc1N1CCCC1 (stereo not drawn)	8.82
CC(c1ccccc1)N1C(=O)/C(=C/c2ccncc2)SC1=S (stereo not drawn)	12.5
C=CCn1c(SCC(=O)N2CCOCC2)nc2c([nH]c3ccccc32)c1=O	-1.44
O=C(Nc1ccc(Br)cc1)C1CCCN(S(=O)(=O)c2cccnc2)C1 (stereo not drawn)	1.16
O=C(CNC(=O)Cc1ccccc1)NCC(=O)N1CCCCC1 (PhAc-Gly-Gly-Piperidide)	3.75
CC(C)(C)C(=O)C(Cc1ccccc1)n1cncn1 (stereo not drawn)	11.1
COc1ccc(N2CCN(C(=O)c3cccc(S(=O)(=O)N4CCCc5ccccc54)c3)CC2)cc1	-8.14
COc1ccc(C)cc1S(=O)(=O)n1cnc2ccccc21	11.2
COc1ccc(C(=O)Oc2ccc3ccc(=O)oc3c2)cc1	22.4
CSc1nc2ccc(C)cc2c(=O)n1-c1cccnc1	2.22
O=C(NC1CC1)C1CCCN(C(=O)Nc2ccc(F)cc2)C1 (stereo not drawn)	6.04
C/C(Cn1ncc(N2CCOCC2)c(Cl)c1=O)=N\O	16.2
CN(Cc1ccccc1)Cc1nc2c(c(=O)n(C)c(=O)n2C)n1Cc1ccc(F)cc1	-5.95
CCOC(=O)N/N=C/c1cccc(Cl)c1Cl	10.7
O=C(COc1ccccc1)Nc1nnc(-c2ccc(Cl)s2)o1	4.99
Cn1c(=O)c2c(nc(OCCc3ccccc3)n2C)n(C)c1=O	13.7
